Laboratory results taken from patent US20240247069A1, “FGFR3 BINDING MOLECULES AND METHODS OF USE THEREOF” (Regeneron Pharmaceuticals, Inc., priority 2023, published 2024).

Columns and labels:
[1] = tested on: UMUC14 bladder cancer cells (FGFR3 S249C); test: UMUC14 spheroid proliferation assay (CellTiter-Glo 3D); assay type: cell-based, human
Procedure: Two human bladder cancer cell lines, UMUC14 (Sigma-Aldrich) and RT4 (ATCC), which express an S249C mutation of FGFR3 or express TACC3-FGFR3 fusion mutation, respectively, were maintained in culture according to the suppliers' recommendations.
7500 UMUC14 or 5000 RT4 bladder cancer cells were seeded in U-bottom low attachment 96-well spheroid plate (Corning) in culture medium (MEM medium with 10% FBS, 1% non-essential amino acids, Pen/Strep). Cells were cultured for 24-48 hours at 37° C. 5% CO2 to allow tumor spheroid formation. Tumor spheroids were treated with antibodies at concentrations ranging from 100 nM to 15.2 pM with 1:3 serial dilution as indicated in the figures. Cells were cultured for 5-6 days, and then subjected to CellTiter-Glo 3D viability assays (Promega) following the manufacturer's protocol. Luminescence signal was read on PE Envision plate reader. Cell proliferation was expressed as percentages of untreated controls. Data were analyzed using GraphPad Prism software using three parameter nonlinear curve fit.

[2] = tested on: BaF3 cells expressing FGFR3 S249C+V557L; test: BaF3 cell proliferation, FGFR3 S249C+V557L; assay type: cell-based; conditions: FGF1/heparin, 72 hours
Excerpt: (§1) cDNA expressing FGFR3 mutants (S249C, S248C, Y375C, V555M, V555L, S249C+V555M, or S249C+V555L) were synthesized and cloned into pLVX Lenti-viral vector (Thermo Fisher). Viral particles were generated by lipofectamine transfection of LentiX 293T cells using Lenti-X packaging single shots following manufacturer's protocol (Clontech/Takara) and concentrated using Lenti-X concentrator and titer determined using Lenti-X p24 rapid titer kit (Clontech/Takara). BaF3 cells were transduced with virus at ˜0.3 MOI.
For cell proliferation assays, engineered BaF3/hFGFR3 cells grown in complete medium were washed and plated in IL-3-free culture media±5 μg/ml heparin and 1 nM human FGF1. Cells were plated out at 1×10^5 cells/well into 96-well plates, followed by the addition of 1:3 serially diluted antibodies as indicated in figures. After addition of antibodies, cells were incubated at 37° C. for 72 h followed by the addition of CellTiter-Glo™ (Promega) reagent. The luminescent signal was detected by Envision plate reader (PerkinElmer). Data was analyzed using Prism software (GraphPad). […]

[3] = tested on: UMUC14 tumors (FGFR3 S249C); test: In vivo tumor growth inhibition, UMUC14 xenograft; design: species or system mouse
Excerpt: Tumor cells (5×10^6 UMUC14 or RT112 in 50% Matrigel) were implanted subcutaneously (s.c.) into the right flank of 6 to 8-week-old female SCID mice (Jackson Laboratory). Once tumors were established (˜200 mm^3 in volume), mice were randomized into treatment groups (n=10 mice per group) and injected intraperitoneally (i.p.) twice per week with anti-FGFR3 antibodies or isotype control at indicated doses. Tumor volume was expressed in mm^3 using the formula: V=0.5×a×b^2 where a and b were the long and short diameters of the tumor, respectively. Tumor sizes were monitored twice weekly. All procedures were conducted according to the guidelines of the Regeneron Institutional Animal Care and Use Committee. All data were analyzed using GraphPad Prism and tumor sizes were graphed as mean±SEM.

[4] = tested on: LU-0813 tumors (FGFR3 S249C); test: In vivo tumor growth inhibition, LU-0813 PDX model; design: species or system mouse; conditions: mAb063 10 mg/kg, BiP063N2 13.3 mg/kg, twice per week
Procedure: Next, the ability of BiP063N2 to inhibit the growth of a patient-derived lung squamous cell carcinoma model LU-0813 was assessed.

[5] = tested on: BaF3 cells expressing S248C hFGFR3b; test: BaF3 cell viability, S248C hFGFR3b; assay type: cell-based; conditions: 1 nM FGF1, 5 μg/ml heparin
Excerpt: as §1, with “MOI. Expression of FGFR3 receptors was confirmed by FACS analysis and western blot.” for “MOI.”
For cell proliferation assays, engineered BaF3/hFGFR3 cells grown in complete medium were washed and plated in IL-3-free culture media±5 μg/ml heparin and 1 nM human FGF1. Cells were plated out at 1×10^5 cells/well into 96-well plates, followed by the addition of 1:3 serially diluted antibodies as indicated in figures. After addition of antibodies, cells were incubated at 37° C. for 72 h followed by the addition of CellTiter-Glo™ (Promega) reagent. The luminescent signal was detected by Envision plate reader (PerkinElmer). Data was analyzed using Prism software (GraphPad).
Next, cell viability was assessed using BaF3 cells expressing S248C hFGFR3b, cultured in a medium with 1 nM FGF1 and 5 μg/ml heparin in the absence (control) or presence of mAb063 or BiP063N2 as described in Section 8.1.4.

FGFR3 [6] = molecular target: T1, FGFR3 (Homo sapiens, UniProt P22607, S249C); test: Western blot of FGFR3 receptor degradation in UMUC14 cells; assay type: cell-based; conditions: 33 nM, 16 hrs
T1 construct: UMUC14 cells, which endogenously express the FGFR3 S249C mutation; endogenous in cells; host or cells: UMUC14 (Sigma-Aldrich)
Procedure: For receptor degradation assessments, cells were treated with 33 nM of a designated antibody for 16 hours. Cells were then washed with pre-chilled PBS and collected in lysis buffer containing protease inhibitors (Cell Signaling Technology). Equal amounts of cell lysate were loaded on either reducing or non-reducing SDS-PAGE for protein separation. PVDF membranes with transferred proteins were blocked in tris-buffered saline (TBS) containing 5% nonfat dry milk and 0.5% Tween 20 and incubated overnight with anti-FGFR3 primary antibody (Santa Cruz). Membranes were washed three times with TBST, incubated with HRP-conjugated goat anti-rabbit secondary antibody (Seracare), and developed with SuperSignal West chemiluminescent substrate (Thermo Scientific). Images were captured with a C300 imager (Azure Biosystems).
To assess the effect of antibody on receptor degradation, UMUC14 cells were treated with indicated antibodies at 33 nM for 16 hrs. Total FGFR3 receptor levels were analyzed by western blot.

FGFR3 [7] = test: Ligand blocking activity of parental anti-FGFR3 antibodies (Table 1); assay type: binding

T1 sequence (P22607 23-808 isoform P22607-2 S249C limits assumed): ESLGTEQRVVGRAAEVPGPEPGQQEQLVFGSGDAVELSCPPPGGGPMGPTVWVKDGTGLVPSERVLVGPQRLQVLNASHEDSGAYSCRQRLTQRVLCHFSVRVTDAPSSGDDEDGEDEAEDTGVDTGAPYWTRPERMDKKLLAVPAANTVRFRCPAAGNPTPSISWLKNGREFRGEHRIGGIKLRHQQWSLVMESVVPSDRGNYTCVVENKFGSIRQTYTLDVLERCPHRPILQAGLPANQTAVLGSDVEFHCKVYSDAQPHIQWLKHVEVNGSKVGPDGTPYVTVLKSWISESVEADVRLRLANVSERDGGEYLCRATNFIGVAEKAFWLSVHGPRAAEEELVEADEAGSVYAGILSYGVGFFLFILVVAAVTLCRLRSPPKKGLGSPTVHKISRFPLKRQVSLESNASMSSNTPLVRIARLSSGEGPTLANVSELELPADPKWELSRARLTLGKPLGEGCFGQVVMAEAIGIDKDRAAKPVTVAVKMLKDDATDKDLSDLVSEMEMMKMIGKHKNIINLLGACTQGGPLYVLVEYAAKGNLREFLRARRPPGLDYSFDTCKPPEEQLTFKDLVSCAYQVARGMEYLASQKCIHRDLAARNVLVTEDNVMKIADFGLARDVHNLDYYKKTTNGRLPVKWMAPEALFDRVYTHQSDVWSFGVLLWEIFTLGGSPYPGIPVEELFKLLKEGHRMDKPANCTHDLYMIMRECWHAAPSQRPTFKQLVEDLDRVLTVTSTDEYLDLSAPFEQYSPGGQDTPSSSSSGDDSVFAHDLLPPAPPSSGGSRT

B1: mAb063: parental anti-FGFR3 antibody; anchor or additional arm; parent of BiP063N2 (antibody)
heavy: QVQLQESGPGLVKPSETLSLTCTVSGDSINSYFWSWIRQLPGKELEWIGHIYSSGSTRYNPSLQSRVTISIDTSKNQFSLKLSSVTAADTAVYYCARGASAVDYWGQGTLVTVSSASTKGPSVFPLAPCSRSTSESTAALGCLVKDYFPEPVTVSWNSGALTSGVHTFPAVLQSSGLYSLSSVVTVPSSSLGTKTYTCNVDHKPSNTKVDKRV[human IgG4 Fc with S228P (EU numbers) cut from this listing]
light: EIVLTQSPGTLSLSPGERATLSCRTSQSISSGYLAWYQQKPGQAPRLLIYGASRRATGIPDRFSGSGSGTDFTLTISRLEPEDFVVYYCQQYGSSPYTFGQGTKLEIKRTVAAPSVFIFPPSDEQLKSGTASVVCLLNNFYPREAKVQWKVDNALQSGNSQESVTEQDSKDSTYSLSSTLTLSKADYEKHKVYACEVTHQGLSSPVTKSFNRGEC
[1]; 5 to 6 days treatment
  antiproliferative activity in UMUC14 spheroid proliferation assay: potent inhibitory activity
[1]; IgG1 backbone
  loss of activity on UMUC14 cell proliferation: complete loss of activity
[1]; IgG4s backbone
  loss of activity on UMUC14 cell proliferation: partial
[2]
  effect on growth of BaF3 cells expressing FGFR3 S249C+V557L: robustly inhibited the growth
[3]; BiP063N2 6.65 mg/kg, mAb063 5 mg/kg
  tumor growth after discontinuation of dosing at day 32: sustained tumor growth suppression until day 46
[3]; mAb063 10 and 3 mg/kg, BiP063N2 13.3 and 4 mg/kg, i.p. twice per week
  effect on UMUC14 tumors: tumor regression
[4]
  effect on LU-0813 tumor growth: strongly inhibited tumor growth
[5]
  effect on cell viability relative to control: diminished cell viability in a dose-dependent manner
FGFR3 [6]
  effect on FGFR3 receptor degradation: did not induce receptor degradation
FGFR3 [7]
  Ligand Blocking Activity (percent value of the cell): 95%
FGFR3 [7]; cell prints value/%, unit inferred, NB not defined for this column, read-out: Ligand Blocking Activity (first value of the cell)
  IC50: 2 nM
